The values below come from patent publication US11008402 (dated 2021).

For assay [1], the target named is HER2 ECD (human, UniProt P04626). The assay is described as follows: ELISA.
The target of assay [2] is HER2 (cell surface) (human, UniProt P04626). The assay is described as follows: FACS, FaDu (HER2 and HER3 positive).
The target in assay [3] is TRAIL-R2-Fc (human, UniProt O14763). In words: ELISA.
In assay [4] the target is EGFR ECD (human, UniProt P00533). The assay is described as follows: ELISA.

B1: scDb 4D5x3-43-Fc, HER2 arm (antibody)
chain: METDTLLLWVLLLWVPGSTG[no letters for about 120 residues]GGGGSQAGLTQPPAVSVAPGQTASITCGRDNIGSRSVHWYQQKPGQAPVLVVYDDSDRPAGIPERFSGSNYENTATLTISRVEAGDEADYYCQVWGITSDHVVFGGGTKLTVLGGGGSGGRASGGGGSGGGGSQVQLQQSGPGLVKPSQTLSLTCAISGDSVSSNRAAWNWIRQSPSRGLEWLGRTYYRSKWYNDYAQSLKSRITINPDTPKNQFSLQLNSVTPEDTAVYYCARDGQLGLDALDIWGQGTMVTVSSGGGGS[no letters for about 100 residues]RAAAGGSGG[no letters for human IgG1 Fc]
In the case of B1, the EC50 was determined as 2.5 nM in assay [1] and 2.9 nM in assay [2].

B2: scDb 2-35x3-43-Fc, HER2 arm (antibody)
chain: METDTLLLWVLLLWVPGSTGQMQLVQSGAEVKKPGESLKISCKGSGYSFTSYWIGWVRQMPGKGLEWMGIIYPGDSDTRYSPSFQGQVTISADKSISTAYLQWSSLKASDTAMYYCARLGRSGSYYNYGMDVWGQGTTVTVSSGGGGSQAGLTQPPAVSVAPGQTASITCGRDNIGSRSVHWYQQKPGQAPVLVVYDDSDRPAGIPERFSGSNYENTATLTISRVEAGDEADYYCQVWGITSDHVVFGGGTKLTVLGGGGSGGRASGGGGSQVQLQQSGPGLVKPSQTLSLTCAISGDSVSSNRAAWNWIRQSPSRGLEWLGRTYYRSKWYNDYAQSLKSRITINPDTPKNQFSLQLNSVTPEDTAVYYCARDGQLGLDALDIWGQGTMVTVSSGGGGSQAVVTQEPSFSVSPGGTVTLTCGLSSGSVSSSYYPSWYQQTSGQPPRTLIYSTDTRSSGVPDRFSGSILGDKAALTITGAQADDESDYYCMLYMGSGISVFGGGTKLAVLAAAGGSGG[no letters for human IgG1 Fc]
As for B2, in assay [1], the EC50 is roughly 1.5 nM.

B3: scDb4D5x3-43-LL, HER2 arm (antibody)
chain: METDTLLLWVLLLWVPGSTGDAAQPAMA[no letters for about 120 residues]GGGGSQAGLTQPPAVSVAPGQTASITCGRDNIGSRSVHWYQQKPGQAPVLVVYDDSDRPAGIPERFSGSNYENTATLTISRVEAGDEADYYCQVWGITSDHVVFGGGTKLTVLGGGGSGGRASGGGGSGGGGSQVQLQQSGPGLVKPSQTLSLTCAISGDSVSSNRAAWNWIRQSPSRGLEWLGRTYYRSKWYNDYAQSLKSRITINPDTPKNQFSLQLNSVTPEDTAVYYCARDGQLGLDALDIWGQGTMVTVSSGGGGS[no letters for about 120 residues]
In turn, B3 showed an EC50 in assay [1] of 1.54 nM.

B4: scFv3-43-Fc-scTRAIL, TRAIL part (antibody)
chain: METDTLLLWVLLLWVPGSTGDYKDDDDKGGGGSGTQVQLQQSGPGLVKPSQTLSLTCAISGDSVSSNRAAWNWIRQSPSRGLEWLGRTYYRSKWYNDYAQSLKSRITINPDTPKNQFSLQLNSVTPEDTAVYYCARDGQLGLDALDIWGQGTMVTVSSGGGGSGGGGSGGGGSQAGLTQPPAVSVAPGQTASITCGRDNIGSRSVHWYQQKPGQAPVLVVYDDSDRPAGIPERFSGSNYENTATLTISRVEAGDEADYYCQVWGITSDHVVFGGGTKLTVLAAAGGSGG[no letters for human IgG1 Fc]GGSGGGSSGGGPQRVAAHITGTRGRSNTLSSPNSKNEKALGRKINSWESSRSGHSFLSNLHLRNGELVIHEKGFYYIYSQTYFRFQEEIKENTKNDKQMVQYIYKYTSYPDPILLMKSARNSCWSKDAEYGLYSIYQGGIFELKENDRIFVSVTNEHLIDMDHEASFFGAFLVGGGPQRVAAHITGTRGRSNTLSSPNSKNEKALGRKINSWESSRSGHSFLSNLHLRNGELVIHEKGFYYIYSQTYFRFQEEIKENTKNDKQMVQYIYKYTSYPDPILLMKSARNSCWSKDAEYGLYSIYQGGIFELKENDRIFVSVTNEHLIDMDHEASFFGAFLVGGGPQRVAAHITGTRGRSNTLSSPNSKNEKALGRKINSWESSRSGHSFLSNLHLRNGELVIHEKGFYYIYSQTYFRFQEEIKENTKNDKQMVQYIYKYTSYPDPILLMKSARNSCWSKDAEYGLYSIYQGGIFELKENDRIFVSVTNEHLIDMDHEASFFGAFLVG
Consider B4, for which the half-maximal effective concentration (EC50) in assay [3] was found to be 2.84 nM.

B5: scDbhu225x3-43-Fc (GGGGS), EGFR arm (antibody)
chain: METDTLLLWVLLLWVPGSTGEVQLVESGGGLVQPGGSLRLSCAASGFSLTNYGVHWVRQAPGKGLEWLGVIWSGGNTDYNTPFTSRFTISRDNSKNTLYLQMNSLRAEDTAVYYCARALTYYDYEFAYWGQGTTVTVSSGGGGSQAGLTQPPAVSVAPGQTASITCGRDNIGSRSVHWYQQKPGQAPVLVVYDDSDRPAGIPERFSGSNYENTATLTISRVEAGDEADYYCQVWGITSDHVVFGGGTKLTVLGGGGSGGGGSGGGGSQVQLQQSGPGLVKPSQTLSLTCAISGDSVSSNRAAWNWIRQSPSRGLEWLGRTYYRSKWYNDYAQSLKSRITINPDTPKNQFSLQLNSVTPEDTAVYYCARDGQLGLDALDIWGQGTMVTVSSGGGGSDIQLTQSPSFLSASVGDRVTITCRASQSIGTNIHWYQQKPGKAPKLLIKYASESISGVPSRFSGSGSGTEFTLTISSLQPEDFATYYCQQNNNWPTTFGAGTKLEIKRAAAGGSGG[no letters for human IgG1 Fc]
Turning to B5, a half-maximal effect in assay [4] (EC50) was put at 0.16 nM.
